Data as given in article PMC6451091.
Some of the results follow. For part of these data: At the low end of the ranking the order means little. For part of these data: Measured with an extract: partners may take part in the binding.

Columns and labels:
Details in all cases: 20 mM HEPES pH 7.9, 100 mM NaCl, 1 mM DTT, 0.2 mg/mL BSA, 0.02% Triton X-100, 2% milk, 0.4 mg/mL salmon testes DNA; 1 h; temperature not stated; high values mean tight binding; double strand, one strand shown; sequences stand for … in GCCTAGCAC…GTGCTAGGTCTTGATTCGCTTGACGCTGCTG
PU.1 (IVT) = PU.1 (IVT) (UniProt P17947); assay: protein-binding microarray (PBM)
[1] = target: T1, FLI1 (endogenous, THP-1 nuclear extract) (UniProt Q01543); assay: nuclear extract protein-binding microarray (nextPBM)
T1 sequence: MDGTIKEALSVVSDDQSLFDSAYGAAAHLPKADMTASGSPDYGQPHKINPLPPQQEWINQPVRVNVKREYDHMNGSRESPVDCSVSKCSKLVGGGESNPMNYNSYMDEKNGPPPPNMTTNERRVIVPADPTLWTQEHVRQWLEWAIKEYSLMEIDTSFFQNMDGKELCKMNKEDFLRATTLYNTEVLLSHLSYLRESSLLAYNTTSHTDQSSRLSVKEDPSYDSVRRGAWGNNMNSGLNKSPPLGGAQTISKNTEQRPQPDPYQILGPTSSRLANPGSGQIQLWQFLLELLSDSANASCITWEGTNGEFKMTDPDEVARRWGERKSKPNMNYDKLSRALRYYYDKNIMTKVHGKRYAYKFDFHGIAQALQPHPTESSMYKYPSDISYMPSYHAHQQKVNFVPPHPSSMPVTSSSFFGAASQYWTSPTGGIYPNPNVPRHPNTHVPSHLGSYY

[2] = test system: PU.1 (endogenous, THP-1 nuclear extract) + IRF8 (endogenous, THP-1 nuclear extract); assay: as above

Sequence	binding signal (PU.1 (IVT))	binding signal [1]	binding signal [2]
AAAAAGAGGAAATGAAAGTA	6.54 z-score	4.16 z-score	39.9 z-score
CTGGCAGGGAACTGAAACTG	0.54 z-score	0.217 z-score	17.1 z-score
AAAAAAAGGAAATGAAAGAA	3.71 z-score	2.38 z-score	0.458 z-score
AGAAACAGGAAGTGAAACCA	7.3 z-score	5.79 z-score	77 z-score
GATAAGAGGACCTGAAAGCT	-0.213 z-score	-0.443 z-score	0.213 z-score
TGAGAGGAGAACTGAAACCT	0.785 z-score	-0.0605 z-score	9.34 z-score
TCCTGGAGGAAGTGAAACTG	3.2 z-score	3.4 z-score	54.4 z-score
AAGAAGAGGAAGAGAAACTA	2.65 z-score	1.57 z-score	8.55 z-score
CTGCCAGTGAAGTGAAAGCA	-0.423 z-score	-0.326 z-score	3.62 z-score
CTGCCAGGGAAGTGAAGGCA	0.913 z-score	0.568 z-score	-0.0451 z-score
CGCAAGGGGAACTGAAACTC	2.4 z-score	1.53 z-score	20.3 z-score
GTTTTGAGGAAGTGAAACTC	6.52 z-score	3.42 z-score	79 z-score
TAGATGAGGAAGTGAAACTC	5.47 z-score	4.06 z-score	58.2 z-score
GAAAAGAGGAAGGGAAACTG	5.02 z-score	2.53 z-score	9.67 z-score
TAAAGGAGGAACTGACACCA	3.55 z-score	1.2 z-score	0.554 z-score
CTGGCGGGGAACTGAAACTC	-0.144 z-score	-0.112 z-score	8.88 z-score
AAGGATGGGAAGTGAAAGTG	2.72 z-score	1.51 z-score	16.5 z-score
AAAAAGGGGAAGAGAAACTC	5.35 z-score	2.55 z-score	9.8 z-score
AAAAAAAGGAAATGAAATTA	3.65 z-score	2.29 z-score	0.606 z-score
CTGCCATGGAAGTGAAAGCA	0.591 z-score	0.243 z-score	1.6 z-score
AAAAAAAGGACATGAAAGTA	-0.0433 z-score	-0.0186 z-score	1.98 z-score
